The labels stand for the following.
B1: AUAGUCU (DNA:RNA)
RNA: GGGAGACCGGAAUUCAGAUUGUCCAUAGUCUUUAAAUCCCGUCGUAGCCACCA
DNA 1: CAATCTGAATTCCGGTCTCCC
DNA 2: TGGTGGCTACGACGGGATT
B2: AUCCACG (DNA:RNA)
RNA: B1 RNA with A27C, G28C, U29A, U31G
DNA 1: CAATCTGAATTCCGGTCTCCC
DNA 2: TGGTGGCTACGACGGGATT
B3: GUGAGUA (DNA:RNA)
RNA: B1 RNA with A25G, A27G, G28A, U29G, C30U, U31A
DNA 1: CAATCTGAATTCCGGTCTCCC
DNA 2: TGGTGGCTACGACGGGATT
B4: CUUUGUC (DNA:RNA)
RNA: B1 RNA with A25C, A27U, G28U, U29G, C30U, U31C
DNA 1: CAATCTGAATTCCGGTCTCCC
DNA 2: TGGTGGCTACGACGGGATT
B5: UAAAAGC (DNA:RNA)
RNA: B1 RNA with A25U, U26A, G28A, U29A, C30G, U31C
DNA 1: CAATCTGAATTCCGGTCTCCC
DNA 2: TGGTGGCTACGACGGGATT
B6: UACGUCC (DNA:RNA)
RNA: B1 RNA with A25U, U26A, A27C, U31C
DNA 1: CAATCTGAATTCCGGTCTCCC
DNA 2: TGGTGGCTACGACGGGATT
B7: GAGUGUG (DNA:RNA)
RNA: GGGAGACCGGAAUUCAGAUUGUCCGAGUGUGUUAAAUCCCGUCGUAGCCACCA
DNA 1: CAATCTGAATTCCGGTCTCCC
DNA 2: TGGTGGCTACGACGGGATT
B8: ACACGGC (DNA:RNA)
RNA: B1 RNA with U26C, G28C, U29G, C30G, U31C
DNA 1: CAATCTGAATTCCGGTCTCCC
DNA 2: TGGTGGCTACGACGGGATT
B9: CUGCAGU (DNA:RNA)
RNA: B1 RNA with A25C, A27G, G28C, U29A, C30G
DNA 1: CAATCTGAATTCCGGTCTCCC
DNA 2: TGGTGGCTACGACGGGATT
B10: CCUCGUU (DNA:RNA)
RNA: B7 RNA with G25C, A26C, G27U, U28C, G31U
DNA 1: CAATCTGAATTCCGGTCTCCC
DNA 2: TGGTGGCTACGACGGGATT
B11: AAUUACG (DNA:RNA)
RNA: B7 RNA with G25A, G27U, G29A, U30C
DNA 1: CAATCTGAATTCCGGTCTCCC
DNA 2: TGGTGGCTACGACGGGATT
B12: GUCUUUU (DNA:RNA)
RNA: B1 RNA with A25G, A27C, G28U, C30U
DNA 1: CAATCTGAATTCCGGTCTCCC
DNA 2: TGGTGGCTACGACGGGATT
B13: UUCCAAC (DNA:RNA)
RNA: B1 RNA with A25U, A27C, G28C, U29A, C30A, U31C
DNA 1: CAATCTGAATTCCGGTCTCCC
DNA 2: TGGTGGCTACGACGGGATT
B14: GUAACUU (DNA:RNA)
RNA: B1 RNA with A25G, G28A, U29C, C30U
DNA 1: CAATCTGAATTCCGGTCTCCC
DNA 2: TGGTGGCTACGACGGGATT
B15: GCAUAUA (DNA:RNA)
RNA: B7 RNA with A26C, G27A, G29A, G31A
DNA 1: CAATCTGAATTCCGGTCTCCC
DNA 2: TGGTGGCTACGACGGGATT
B16: GAGCGCU (DNA:RNA)
RNA: B7 RNA with U28C, U30C, G31U
DNA 1: CAATCTGAATTCCGGTCTCCC
DNA 2: TGGTGGCTACGACGGGATT
B17: UCGUGUC (DNA:RNA)
RNA: B7 RNA with G25U, A26C, G31C
DNA 1: CAATCTGAATTCCGGTCTCCC
DNA 2: TGGTGGCTACGACGGGATT
B18: GAUAGCC (DNA:RNA)
RNA: B7 RNA with G27U, U28A, U30C, G31C
DNA 1: CAATCTGAATTCCGGTCTCCC
DNA 2: TGGTGGCTACGACGGGATT
B19: AAAGUCU (DNA:RNA)
RNA: B1 RNA with U26A
DNA 1: CAATCTGAATTCCGGTCTCCC
DNA 2: TGGTGGCTACGACGGGATT
B20: AACCAAA (DNA:RNA)
RNA: B1 RNA with U26A, A27C, G28C, U29A, C30A, U31A
DNA 1: CAATCTGAATTCCGGTCTCCC
DNA 2: TGGTGGCTACGACGGGATT
B21: CUUGGUG (DNA:RNA)
RNA: B7 RNA with G25C, A26U, G27U, U28G
DNA 1: CAATCTGAATTCCGGTCTCCC
DNA 2: TGGTGGCTACGACGGGATT
B22: UACACGC (DNA:RNA)
RNA: B7 RNA with G25U, G27C, U28A, G29C, U30G, G31C
DNA 1: CAATCTGAATTCCGGTCTCCC
DNA 2: TGGTGGCTACGACGGGATT
B23: UCCAGAG (DNA:RNA)
RNA: B7 RNA with G25U, A26C, G27C, U28A, U30A
DNA 1: CAATCTGAATTCCGGTCTCCC
DNA 2: TGGTGGCTACGACGGGATT
B24: CCCCCUU (DNA:RNA)
RNA: B1 RNA with A25C, U26C, A27C, G28C, U29C, C30U
DNA 1: CAATCTGAATTCCGGTCTCCC
DNA 2: TGGTGGCTACGACGGGATT
B25: GGAGGCC (DNA:RNA)
RNA: B1 RNA with A25G, U26G, U29G, U31C
DNA 1: CAATCTGAATTCCGGTCTCCC
DNA 2: TGGTGGCTACGACGGGATT
B26: GUGCGCC (DNA:RNA)
RNA: B7 RNA with A26U, U28C, U30C, G31C
DNA 1: CAATCTGAATTCCGGTCTCCC
DNA 2: TGGTGGCTACGACGGGATT
B27: UGAGAUU (DNA:RNA)
RNA: B1 RNA with A25U, U26G, U29A, C30U
DNA 1: CAATCTGAATTCCGGTCTCCC
DNA 2: TGGTGGCTACGACGGGATT
B28: ACGGUGU (DNA:RNA)
RNA: B1 RNA with U26C, A27G, C30G
DNA 1: CAATCTGAATTCCGGTCTCCC
DNA 2: TGGTGGCTACGACGGGATT
B29: CACCAAU (DNA:RNA)
RNA: B1 RNA with A25C, U26A, A27C, G28C, U29A, C30A
DNA 1: CAATCTGAATTCCGGTCTCCC
DNA 2: TGGTGGCTACGACGGGATT
B30: AUCGCCA (DNA:RNA)
RNA: B1 RNA with A27C, U29C, U31A
DNA 1: CAATCTGAATTCCGGTCTCCC
DNA 2: TGGTGGCTACGACGGGATT
B31: GAUGGGU (DNA:RNA)
RNA: B7 RNA with G27U, U28G, U30G, G31U
DNA 1: CAATCTGAATTCCGGTCTCCC
DNA 2: TGGTGGCTACGACGGGATT

Numbering of substitutions follows the chain as printed; changes in the protein carry UniProt numbers. This is one part of the list.

For the experiment, the target named is T1, RBFOX1 RRM RbFoxmut (Fox-RRM*) (Homo sapiens, UniProt Q9NWB1 109-208, R118D;E147R;N151S;E152T).
T1 sequence: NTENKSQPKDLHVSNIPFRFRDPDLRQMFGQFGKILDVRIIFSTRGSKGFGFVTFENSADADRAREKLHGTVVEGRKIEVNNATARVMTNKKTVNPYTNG
Kind of experiment: EMSA; HiTS-Eq, 1 nM pool, 10 min; buffer printed only for the single-RNA assays: 10 mM Tris pH 7.5, 150 mM NaCl, 3.4 mM EDTA, 0.001% NP-40, 30 C. The conditions noted are these: tags: His6 N-terminal (pET28a); label: 5' 32P. A digest of the protocol:
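Purified RbFox RRM, wild type or mutant, was incubated for 10 min in 50 µL with 1 nM of a 5′-radiolabelled RNA pool carrying 7 randomized nucleotides, whose flanks were annealed to DNA oligonucleotides, over a series of increasing protein concentrations. Unbound RNA was resolved on 8% native PAGE, cut out, reverse-transcribed, barcoded by PCR and sequenced on an Illumina HiSeq 2500. Relative association constants were derived from changes in read counts for each RNA species versus the control reaction and normalised to the cognate motif.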
In the case of B1, the binding signal is 0.065 KA relative to UGCAUGU.

For B2, the binding signal is 0.135 KA relative to UGCAUGU.

With B3, the binding signal is 0.172 KA relative to UGCAUGU.

Regarding B4, the binding signal was 0.25 KA relative to UGCAUGU.

For the molecule B5, the binding signal was 0.0571 KA relative to UGCAUGU.

On to B6, for which the binding signal is 0.0781 KA relative to UGCAUGU.

With B7, the binding signal is 0.262 KA relative to UGCAUGU.

For B8, the binding signal was 0.115 KA relative to UGCAUGU.

Take B9: the binding signal was 0.0952 KA relative to UGCAUGU.

Turning to B10, the binding signal was 0.0946 KA relative to UGCAUGU.

In the case of B11, the binding signal is 0.133 KA relative to UGCAUGU.

As for B12, the binding signal was 0.0867 KA relative to UGCAUGU.

With B13, the binding signal is 0.0762 KA relative to UGCAUGU.

As for B14, the binding signal is 0.104 KA relative to UGCAUGU.

For B15, the binding signal is 0.169 KA relative to UGCAUGU.

Consider B16, for which the binding signal is 0.0709 KA relative to UGCAUGU.

As to B17, the binding signal was 0.359 KA relative to UGCAUGU.

Take B18: the binding signal is 0.118 KA relative to UGCAUGU.

Regarding B19, the binding signal is 0.0626 KA relative to UGCAUGU.

For the molecule B20, the binding signal was 0.0907 KA relative to UGCAUGU.

Regarding B21, the binding signal is 0.131 KA relative to UGCAUGU.

Consider B22, for which the binding signal was 0.058 KA relative to UGCAUGU.

In the case of B23, the binding signal was 0.107 KA relative to UGCAUGU.

For B24, the binding signal was 0.0626 KA relative to UGCAUGU.

As to B25, the binding signal was 0.104 KA relative to UGCAUGU.

In the case of B26, the binding signal was 0.153 KA relative to UGCAUGU.

Regarding B27, the binding signal is 0.104 KA relative to UGCAUGU.

For B28, the binding signal was 0.14 KA relative to UGCAUGU.

As to B29, the binding signal is 0.0482 KA relative to UGCAUGU.

For B30, the binding signal is 0.124 KA relative to UGCAUGU.

Take B31: the binding signal was 0.077 KA relative to UGCAUGU.

For the origin of these results see paper PMC9911399, “Two distinct binding modes provide the RNA-binding protein RbFox with extraordinary sequence specificity”.
